Assay results as given in the supplement of paper PMC12217912.
Some of the results follow. The full chains were built here from the parent and the listed change. Values near 0.05 are background.

B1: TEV protease; numbered along this chain (parent)
chain: MGESLFKGPRDYNPISSSICHLTNESDGHTTSLYGIGFGPFIITNKHLFRRNNGTLVVQSLHGVFKVKDTTTLQQHLVDGRDMIIIRMPKDFPPFPQKLKFREPQREERICLVTTNFQTKSMSSMVSDTSCTFPSGDGIFWKHWIQTKDGQCGSPLVSTRDGFIVGIHSASNFTNTNNYFTSVPKNFMELLTNQEAQQWVSGWRLNADSVLWGGHKVFMVKPEEPFQPVKEATQL

Variants of: B1
Assay: raw area under fraction-flipped curve 0-4 h after induction (AUC4h, not background-subtracted), DNA-recorder readout of cleavage of the substrate (dimensionless); higher = more cleavage of the substrate by the protease variant
Conditions: temperature: 34 °C; time window: 0-4 h after rhamnose induction
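Note: Bxb1 expression induced with 0.2% (w/v) L-rhamnose at OD600 near 0.5, cultures sampled hourly, flipped fraction per protease–substrate barcode pair counted by paired-end Illumina sequencing.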

Row | Variant | area with substrate HNLYFQS | area with substrate MNLYFQS | area with substrate NNLYFQS | area with substrate SNLYFQS | area with substrate TNLYFQS | area with substrate INLYFQS | area with substrate LNLYFQS | area with substrate RNLYFQS | area with substrate WNLYFQS | area with substrate YNLYFQS
1 | V210I | 0.0494 | 0.0625 | 0.0377 | 0.0667 | 0.0546 |  |  |  |  | 
2 | V210W | 0.0546 |  | 0.0485 | 0.0441 | 0.0526 | 0.0454 | 0.0633 | 0.0537 | 0.0609 | 0.0598
3 | D79Y |  |  |  |  |  |  |  | 0.0707 |  | 
4 | L211G | 0.0592 |  | 0.0583 | 0.0568 |  |  |  |  | 0.0676 | 
5 | L211E | 0.0673 | 0.065 |  | 0.103 | 0.0773 | 0.0709 | 0.0531 | 0.0785 | 0.0597 | 0.0632
6 | F180T | 0.0631 |  | 0.0531 | 0.0525 | 0.0532 |  | 0.0719 |  |  | 
7 | F95P |  |  | 0.0402 | 0.0547 | 0.039 | 0.0558 | 0.0312 |  | 0.0408 | 
8 | H143S |  | 0.0766 |  |  |  | 0.0574 | 0.047 |  | 0.0621 | 
9 | L235W | 0.0576 |  |  |  | 0.0716 | 0.0581 | 0.0581 |  | 0.0544 | 0.0596
10 | L73A |  |  |  |  | 0.0522 |  | 0.0639 |  | 0.0549 | 0.0524
11 | L5S |  |  |  |  |  |  |  | 0.0802 | 0.0534 | 
12 | A170N | 0.0626 |  |  |  | 0.0527 |  |  |  | 0.0217 | 
13 | P89G |  |  | 0.0577 |  | 0.0451 |  |  |  | 0.046 | 
14 | F187V | 0.0755 | 0.0687 |  | 0.0623 | 0.0693 | 0.0578 | 0.0737 |  |  | 0.0736
15 | L205C |  |  |  |  | 0.0634 | 0.032 |  |  | 0.0513 | 0.0375
16 | Q234E | 0.0762 |  |  |  | 0.148 | 0.054 | 0.0676 |  | 0.0668 | 0.0249
17 | A232D | 0.0798 |  |  | 0.0658 | 0.0843 |  | 0.0487 |  | 0.0542 | 0.0713
18 | M188H |  |  |  |  | 0.0531 | 0.0577 | 0.065 |  | 0.0613 | 
19 | S158T |  |  | 0.0444 |  | 0.0691 |  | 0.0446 |  |  | 
20 | K230R | 0.0603 |  |  | 0.0826 |  |  | 0.0646 |  |  | 
21 | T233A |  |  |  |  | 0.039 | 0.0767 |  |  | 0.071 | 0.0643
22 | S201F |  |  |  |  | 0.0474 |  | 0.0623 |  |  | 0.0529
23 | P94C |  | 0.0291 |  |  | 0.0412 |  |  |  | 0.0578 | 0.0652
24 | P228I |  |  |  |  |  |  |  | 0.0597 |  | 0.0693
25 | G214H |  | 0.0574 |  |  | 0.0744 |  | 0.0496 |  |  | 
26 | G214I | 0.0542 |  |  |  |  | 0.0513 |  |  |  | 0.0422
27 | L191W | 0.0474 | 0.0747 | 0.0567 |  | 0.0556 | 0.0608 | 0.0583 |  |  | 0.0508
28 | V229W | 0.0616 |  | 0.0775 | 0.0767 | 0.0677 | 0.0612 |  |  | 0.055 | 0.0673
29 | Y179P | 0.0597 |  | 0.0549 | 0.0623 | 0.0519 |  | 0.0459 |  | 0.0469 | 0.0524

Same assay, conditions: temperature: 34 °C; time window: 0-4 h after rhamnose induction

Row | Variant | area with substrate KNLYFQS | area with substrate PNLYFQS | area with substrate VNLYFQS | area with substrate QNLYFQS
30 | D79Y | 0.0802 | 0.0741 |  | 
31 | L211E | 0.0676 | 0.079 | 0.0924 | 
32 | F180T | 0.0494 | 0.0543 | 0.0556 | 
33 | F95P | 0.0623 | 0.0488 | 0.0503 | 
34 | H143S | 0.0455 |  |  | 0.0791
35 | L235W |  | 0.065 |  | 0.0653
36 | L73A |  | 0.067 |  | 
37 | L5S |  | 0.0693 |  | 
38 | F187V | 0.0481 | 0.0907 | 0.0531 | 
39 | L205C |  | 0.0668 |  | 
40 | Q234E | 0.0736 | 0.0461 | 0.0614 | 
41 | A232D |  |  | 0.0605 | 
42 | S158T |  |  | 0.0618 | 
43 | T233A |  | 0.0747 |  | 
44 | P228I |  | 0.0569 |  | 
45 | G214H |  | 0.0481 |  | 
46 | V229W | 0.0573 | 0.0598 | 0.0635 | 
47 | Y179P | 0.0497 |  |  | 
